PubChem BioAssay AID1963576 (National Center for Advancing Translational Sciences (NCATS), 2024)
About 60 (0.1%) of roughly 46,000 compounds were called active. Not shown: some 3% with an inconclusive outcome. Calls come from the whole dose curve; as a rule, active = well fitted inhibition curve with a large enough effect; inconclusive = small, poorly fitted or top-dose-only effect; inactive = no such curve, though single readings can be large or run the other way. The list shows a part of the results.

assay: Primary qHTS assay for Inhibitors of ovarian cancer metastasis using an organotypic tumor microenvironment (TME) model.; note: nearly all actives have a fitted effect of over 65% in size;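 for activity change, negative = inhibition: plate controls were DMSO wells for no effect and tomatine positive control wells for full effect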; settings: SKOV3ip1-GFP adhesion/invasion on 3D omental model, fluorescence; series mostly up to 45.8 µM; activity change, negative = inhibition: at the top concentration
In short: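 Primary human omental fibroblast/mesothelial 3D culture pre-formed 48 h. SKOV3ip1-GFP cells added with compounds (0.36-46 umol/L), incubated 2 h RT/16 h 37 C, fixed; GFP cells quantified at 488/509 nm.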

Activity change, negative = inhibition, inactive:
COc1ccc(Cc2nc3ccc(C(=O)NCc4ccccc4Cl)cc3o2)cc1 -8.53%
O=C1OC(C(=O)Nc2cc(C(F)(F)F)ccc2Cl)Cc2ccccc21 (stereo not given) 10.7%
Cc1ccc(C)c(N2CCN(C(=O)c3cnn(-c4ccccc4Cl)c3C3CCN(C(=O)OC(C)(C)C)CC3)CC2)c1 -1.58%
O=C(CSc1nc(-c2ccc(F)cc2)[nH]c1-c1ccc(F)cc1)Nc1ccc2c(c1)OCCO2 -16.8%
CCN(CC)c1ccc(NC(=O)C2CCN(S(=O)(=O)c3cnc[nH]3)CC2)c(C)c1 -11%
CCOc1ccc(CC(=O)NCC(c2cccs2)S(=O)(=O)c2ccc(F)c(C)c2)cc1 (stereo not given) 1.99%
O=C(COc1ccc(Cl)cc1)Nc1ccccc1OCc1cc(=O)n2ccccc2n1 4.8%
COc1ccc(S(=O)(=O)NCC(c2ccc(N(C)C)cc2)N2CCc3ccccc32)cc1OC (stereo not given) -24.9%
COc1ccccc1N1CCN(C(=O)c2cnn(-c3ccc(F)cc3F)c2C2CCNCC2)CC1 20.2%
COc1cccc2c1C(=O)c1c(O)c3c(c(O)c1C2=O)C[C@@](O)(C(=O)CO)C[C@@H]3O[C@H]1C[C@H](N)[C@H](OC2CCCCO2)[C@H](C)O1 (stereo not given in full) -1.73%
Cc1ccc(Nc2nnc(-c3ccc(C)c(S(N)(=O)=O)c3)c3ccccc23)cc1 -24.6%
COc1cccc(C(=O)Nc2ccc3oc(-c4cccc5c(Br)cccc45)nc3c2)c1 -26.8%
CN(C)S(=O)(=O)c1ccc(C(=O)NCCSc2c(-c3ccc(Cl)cc3)[nH]c3ccccc23)cc1 -2.68%
COc1ccc(N2CCN(C(=O)CCc3c(C)nc4cc(-c5ccc(OC)cc5OC)nn4c3C)CC2)cc1 26%
CCOC(=O)c1c(NC(=O)c2ccccc2OCC)sc2c1CCC(CC)C2 (stereo not given) 22.4%
Cc1cccc(OCC(=O)Nc2cccc3cccnc23)c1C -3.93%
O=C(c1ccc2c(c1)CCN2S(=O)(=O)c1ccc(Cl)cc1)N1CCN(c2ccc(F)cc2)CC1 -1.93%
CCOc1ccc(NC(=O)NCc2cccn2Cc2ccccc2)cc1 7.63%
Cc1cccc(C)c1-n1ncc(C(=O)NC2CCCC2)c1C1CCN(C(=O)OC(C)(C)C)CC1 9.75%
Cc1c(C(=O)OC2CCCCCC2)[nH]c2c1C(=O)CC(c1ccc(Cl)cc1)C2 (stereo not given) 4.53%
O=S(=O)(O)c1ccc2cc(N=Nc3cc(S(=O)(=O)O)c4cccnc4c3O)ccc2c1 -13.6%
Cc1nnc(N2C(=O)c3oc4ccccc4c(=O)c3C2c2ccc(Cl)cc2)s1 (stereo not given) 8.73%
CC(=O)N1CCC(N(Cc2ccco2)C(=O)Nc2ccc(C)c(Cl)c2)CC1 -8.41%
Cc1ccc2[nH]c3c(=O)n(CC(=O)N(CCN(C)C)Cc4ccccc4)ncc3c2c1 -15%
Cc1ccc2oc(-c3ccc(C)c(NC(=O)/C=C/c4ccc(Cl)cc4)c3)nc2c1 -6.55%
Cc1cc(C)cc(NC(=O)Cn2cc(C(=O)c3cccs3)c3ccccc32)c1 3.82%
COc1ccc(Nc2c(-c3ccc(C)o3)nc3cc(C)ccn23)cc1 15.9%
CCOc1ccc(N2CC(NC(=O)C3CCCCC3)CC2=O)cc1 (stereo not given) 9.67%
CCOC(=O)CNC(=O)N1[C@H](c2cccs2)[C@@H](C)C(=O)[C@@H](C)[C@@H]1c1cccs1 2.7%
CC(C)(C)c1nc2c3cc[nH]c(=O)c3c3cc(F)ccc3c2[nH]1 4.8%
COc1ccc2c(c1)c(=O)c(C(=O)c1ccc(F)cc1)cn2CC(=O)Nc1ccc2c(c1)OCO2 4.31%
CCc1c(C)nc2nncn2c1NCc1ccccc1 9.84%
O=S1(=O)c2ccccc2N(Cc2ccc(Cl)cc2)c2ccccc21 -0.155%
CCc1nnc(NC(=O)c2nc(SCc3ccccc3F)ncc2Cl)s1 4.39%
Cc1cc(Br)ccc1NC(=O)c1sc2nc3n(c(=O)c2c1C)CCCC3 -9.27%
CC(C)CCNC(=O)Cn1c(-c2cccs2)cc2cc(F)ccc21 -1.38%
Cc1ccc(NC(=O)C2CCN(c3nnc(C)c4c(C)n(-c5ccccc5)nc34)CC2)c(Cl)c1 4.07%
COc1ccc(Cl)cc1C(=O)Nc1nnc2n1CCS2 -16.4%
Cc1ccc(S(=O)(=O)N(CC(=O)NCCSc2ccc(Cl)cc2)c2ccccc2C)cc1 -3.13%
O=C(CCCCCn1c(=O)c2sccc2n(Cc2ccc(Cl)cc2)c1=O)NCc1ccc2c(c1)OCO2 17.3%
CC(C)c1ccc(NC(=O)N2c3ccccc3Sc3ccccc32)cc1 1.22%
Cc1cc(C)c(NC(=O)Cn2nnc(S(=O)(=O)c3ccc(C)c(C)c3)c2N)c(C)c1 9.26%
COc1ccc(-c2cc(C(=O)N3CCN(c4ccccc4)CC3)no2)cc1 -29.4%
Cc1cccc(N2CCn3c2nc2c3c(=O)n(C/C=C/c3ccccc3)c(=O)n2C)c1 11.6%
CCCCN(CC)c1nc(-c2ccccc2F)nc2ccccc12 5.73%
CN1C(C(=O)Nc2cccc(O)c2)=CC(c2ccco2)=NS1(=O)=O 2.48%

outcome, inactive:
CCOC(=O)c1c(C)c(-c2ccccc2)n(CC(=O)NC(CC)Cc2ccccc2)c1C (stereo not given)
Cc1ccc(NC(=O)C2CC(=O)N(c3ccc(OC(C)C)cc3)C2)cc1 (stereo not given)
CCc1ccccc1N(C)C(=O)c1ccc2c(=O)n3c(nc2c1)CCCCC3
CCCOc1ccc(C2C(=O)N(C3CCCCCC3)CC(=O)N2CCC)cc1OC (stereo not given)
Cc1ccc2c(c1)C(=O)OC(C(=O)Nc1ncc(Cc3ccc(Cl)cc3)s1)C2 (stereo not given)
O=C(COc1ccc(Cl)cc1Cl)Nc1cccc2cccnc12
Cc1ccc(CNC(=O)c2ccc(CN3CC(=O)N4CCCCC4C3=O)cc2)cc1 (stereo not given)
COc1cc(NC(=O)c2nc3nc(C)cc(C(F)F)n3n2)c(OC)cc1Cl
COc1ccc(S(=O)(=O)N2CCN(c3cccc(C)c3C)CC2)c2ccccc12
CCCCOc1ccc(Cn2c(=O)oc3ccc(C)cc32)cc1OC
CCN(Cc1ccccc1)Cc1c(O)ccc2oc(C)c(C(=O)Nc3ccc(C)cc3C)c12
COCCCNC(=O)CCn1c(=O)c2ccccc2n(CC(=O)Nc2cc(Cl)ccc2OC)c1=O
O=C(NCCc1ccc(Cl)cc1)c1ccc2c(c1)N(Cc1ccc(Cl)cc1)C(=O)CS2
C=Cc1ccc(Cn2c(=O)n(-c3cccc(Cl)c3)c(=O)c3c4c(sc32)CN(C(C)=O)CC4)cc1
